Hit rate of the full screen: of about 220,000 compounds, about 5,700 (2.6%) were called active. This list was built around the results that the source calls inconclusive (neither active nor inactive); the mix of calls is not that of the screen. The call rests on the fitted dose curve; in most records, active means well fitted inhibition curve with a large enough effect; inconclusive means small, poorly fitted or top-dose-only effect; inactive means no such curve, though single readings can be large or run the other way. Where the call is inconclusive, the potency comes from a doubtful curve fit.
target: Lysine-specific demethylase 5B (Homo sapiens) (UniProt Q9UGL1); experiment: Primary screen for KDM5B Histone Demethylases FDH-coupled qHTS; conditions: FDH-coupled NADH fluorescence (FDH is formaldehyde dehydrogenase); activity change, negative = inhibition: at 57.7 µM (top of the series) unless noted; further: nearly all actives have a fitted effect of over 70% in size; on activity change, negative = inhibition: 0% is about no effect
UniProt Q9UGL1, sequence (Q9UGL1 whole entry, looked up): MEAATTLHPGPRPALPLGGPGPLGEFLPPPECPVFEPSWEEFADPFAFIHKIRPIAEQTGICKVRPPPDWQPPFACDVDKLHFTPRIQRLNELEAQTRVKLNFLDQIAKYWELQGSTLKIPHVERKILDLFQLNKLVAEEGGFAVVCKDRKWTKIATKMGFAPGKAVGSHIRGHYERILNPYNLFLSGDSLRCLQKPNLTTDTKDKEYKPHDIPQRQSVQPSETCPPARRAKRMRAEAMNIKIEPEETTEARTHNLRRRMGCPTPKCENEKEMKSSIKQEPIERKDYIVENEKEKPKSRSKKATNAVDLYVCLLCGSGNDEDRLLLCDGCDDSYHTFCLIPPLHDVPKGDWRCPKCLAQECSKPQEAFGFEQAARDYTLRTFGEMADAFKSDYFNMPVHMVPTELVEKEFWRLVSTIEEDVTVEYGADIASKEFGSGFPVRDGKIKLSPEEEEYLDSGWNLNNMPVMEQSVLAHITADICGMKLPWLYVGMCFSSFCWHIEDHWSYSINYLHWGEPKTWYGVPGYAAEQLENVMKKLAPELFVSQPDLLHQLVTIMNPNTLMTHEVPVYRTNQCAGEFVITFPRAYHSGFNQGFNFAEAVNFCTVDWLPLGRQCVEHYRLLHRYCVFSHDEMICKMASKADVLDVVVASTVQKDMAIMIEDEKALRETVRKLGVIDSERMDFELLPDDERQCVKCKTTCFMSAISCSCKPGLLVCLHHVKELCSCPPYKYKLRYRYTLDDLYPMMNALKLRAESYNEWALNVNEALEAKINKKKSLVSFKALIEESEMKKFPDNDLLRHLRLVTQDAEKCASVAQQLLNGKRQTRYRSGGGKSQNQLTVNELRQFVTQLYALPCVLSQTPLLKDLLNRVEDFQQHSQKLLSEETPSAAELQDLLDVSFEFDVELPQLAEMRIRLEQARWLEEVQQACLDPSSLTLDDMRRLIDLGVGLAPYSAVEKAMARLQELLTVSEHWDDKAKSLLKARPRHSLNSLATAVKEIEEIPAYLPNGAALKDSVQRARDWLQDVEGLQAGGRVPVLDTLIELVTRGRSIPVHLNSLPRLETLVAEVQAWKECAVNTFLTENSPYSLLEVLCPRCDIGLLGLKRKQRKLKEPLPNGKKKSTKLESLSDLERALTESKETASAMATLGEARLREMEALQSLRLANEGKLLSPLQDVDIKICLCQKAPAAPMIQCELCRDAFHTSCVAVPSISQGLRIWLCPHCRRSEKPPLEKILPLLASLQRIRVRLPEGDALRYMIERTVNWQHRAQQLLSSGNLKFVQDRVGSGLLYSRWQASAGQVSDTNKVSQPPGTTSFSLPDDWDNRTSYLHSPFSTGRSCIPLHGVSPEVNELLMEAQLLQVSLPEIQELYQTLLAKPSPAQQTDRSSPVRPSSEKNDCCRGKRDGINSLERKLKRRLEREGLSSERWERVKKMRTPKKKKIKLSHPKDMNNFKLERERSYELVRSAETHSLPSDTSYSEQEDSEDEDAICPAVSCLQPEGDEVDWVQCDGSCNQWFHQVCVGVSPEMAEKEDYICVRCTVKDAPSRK
Method in brief: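 KDM5BΔAP (200 nM final) in 50 mM HEPES pH 7.5, 0.01% Tween-20 was preincubated 10 min at RT with compound over a concentration range. Substrate mix (H3K4me3 12.5 µM, α-KG 25 µM, Fe²⁺, ascorbate, NAD⁺, FDH) was added, and NADH fluorescence change over 30 min gave dose-response curves.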
Potency means the concentration at half of the fitted maximal effect; tags describe the fitted curve by direction and shape.

SMILES | Potency | activity change, negative = inhibition
CN(C)c1ccc(C2C3CCCc4ccccc4C3=NN2C)cc1 (stereo not drawn) | inconclusive: 39.8 µM [inhibitor, partial curve, poor fit] | 
O=C(Nc1cc(=O)[nH]c2nc(C(F)(F)F)nn12)c1ccc(Cl)cc1 |  | inactive: -2.47%
O=C(Cc1csc(-c2cccs2)n1)Oc1ccc(Cl)c2ccccc12 | inconclusive: 1.78 µM [inhibitor, full curve, poor fit] | 
CCOC(=O)c1c(NC(=O)CSc2nc(-c3ccc(OC)cc3)cc(C(F)(F)F)n2)sc(C)c1C | inconclusive: 25.1 µM [inhibitor, partial curve, poor fit] | 
O=C(Nc1ccc(Cl)cc1Cl)c1ccc2cc[nH]c2n1 | active: 89.1 µM | 
CN(C)S(=O)(=O)c1cccc(NC(=O)CNCc2ccccn2)c1 | inconclusive: 11.2 µM [inhibitor, partial curve, poor fit] | 
COc1ccc(-c2ccnc(-c3nnc(C)n3C3CCN(C)CC3)c2)cc1OC | active: 31.6 µM | 
O=C(Nc1c(NCc2ccccc2)c2ccccc2oc1=O)c1ccccc1 |  | inactive: 14.9%
CCOC(=O)Cc1c(C)nc2cc(-c3ccc(C(C)(C)C)cc3)nn2c1C | inconclusive: 10 µM [inhibitor, partial curve, poor fit] | 
CC(N)CC(C)(C)c1ccccc1 (stereo not drawn) |  | inactive: 4.94%
CCc1ccc(NC(=O)C2CCCN2S(=O)(=O)c2ccc3nc(-c4ccccc4)[nH]c3c2)cc1 (stereo not drawn) | inconclusive: 15.8 µM [inhibitor, partial curve, poor fit] | 
CC(C)NC(=O)c1ccccc1OCC1CCCN(Cc2ccccn2)C1 (stereo not drawn) | inconclusive: 22.4 µM [inhibitor, single point] | 
Cc1ccccc1Nc1nc(NCc2ccco2)c2ccccc2n1 | inconclusive: 25.1 µM [inhibitor, partial curve, poor fit] | 
Cc1ccc2oc(=O)n(CCNC(=O)Nc3ccc4c(c3)OCCO4)c2c1 |  | inactive: -1.48%
CC(=O)Oc1ccc2cc(-c3nc(-c4ccc(C)cc4)no3)c(=O)oc2c1 | inconclusive: 2 µM [inhibitor, full curve, poor fit] | 
C=CCNC(=O)N1CC[C@@H](CC(=O)O)[C@@H](CC2=NCCc3cc(OC)ccc32)C1 | active: 35.5 µM | 
CCCN1Cc2cccc(C(=O)Nc3cc(Cl)ccc3Cl)c2C1=O |  | inactive: 20.7%
Cc1ccc(C(=O)NCC(c2cccs2)S(=O)(=O)c2ccccc2)cc1C (stereo not drawn) | inconclusive: 14.1 µM [inhibitor, partial curve, poor fit] | 
CC(C)Nc1nc2c(S(=O)(=O)c3cccc(Cl)c3)nnn2c2ccsc12 | inconclusive: 1.58 µM [inhibitor, partial curve, poor fit] | 
O=C(OCC(=O)N(CCc1ccccc1)Cc1ccccc1)c1ccccc1NCCO | inconclusive: 25.1 µM [inhibitor, partial curve, poor fit] | 
O=S(=O)(Nc1ccc(-c2cn3ccsc3n2)cc1)c1ccccc1 |  | inactive: -18%
C=CCNCc1ccc(Br)cc1 |  | inactive: 1.29%

SMILES | Potency | activity change, negative = inhibition
CCc1cc2c(CN3CCN(c4ccccc4O)CC3)cc(=O)oc2cc1O | inconclusive: 28.2 µM [inhibitor, partial curve, poor fit] | 
CCOC(=O)c1cc(C#N)c(Nc2ccc(C)cc2)nc1C(F)(F)F | inconclusive: 31.6 µM [inhibitor, single point] | 
CC(=O)N1CCNc2cc(NCc3ccc(F)cc3)ncc2C1 | inconclusive: 39.8 µM [inhibitor, partial curve, poor fit] | 
COc1ccc(C2Nc3ccccc3C(=O)N2NS(=O)(=O)c2ccc(C)cc2)c(OC)c1 (stereo not drawn) | inconclusive: 28.2 µM [inhibitor, partial curve, poor fit] | 
COCCN1CCC(CN(C)C2CCNCC2)C1 (stereo not drawn) | inconclusive: 22.4 µM [inhibitor, partial curve, poor fit] | 
O=C(Nc1ccc2c(N3CCOCC3)ncnc2c1)c1ccc(F)c(Cl)c1 | inconclusive: 20 µM [inhibitor, partial curve] | 
Cc1nn(CC(=O)NCCc2ccccc2)c(=O)c2nn(-c3ccccc3)c(C)c12 | inconclusive: 7.94 µM [inhibitor, partial curve, poor fit] | 
N[C@H]1CO[C@H]2[C@@H]1OC[C@@H]2n1cc(-c2ccccn2)nn1 | inconclusive: 39.8 µM [inhibitor, partial curve, poor fit] | 
O=C(C1CCCC1)N1CCC2(CC1)CC(N(Cc1ccc(F)cc1)C1CC1)CCO2 (stereo not drawn) | inconclusive: 25.1 µM [inhibitor, partial curve, poor fit] | 
Cc1oc(-c2cccs2)nc1C(=O)NC(C)COCC(F)(F)F (stereo not drawn) | inconclusive: 39.8 µM [inhibitor, single point] | 
COc1cccc(Oc2c(C)oc3cc(O)ccc3c2=O)c1 | inconclusive: 8.91 µM [inhibitor, full curve, poor fit] | 
NC(=O)c1ccc(CN(C2CC2)S(=O)(=O)c2cccc3nsnc23)cc1 |  | inactive: 7.95%
CCc1nc2ccc(C(=O)N3CCN(c4cc(C)ccc4C)CC3)cc2nc1CC | inconclusive: 28.2 µM [inhibitor, partial curve, poor fit] | 
c1ccc2c(NC34CC5CC(CC(C5)C3)C4)nc(N3CCCC3)nc2c1 |  | inactive: 14.2%
CC1=C(C(N)=O)C(c2cccc(Br)c2)n2nc(SCc3ccccc3Cl)nc2N1 (stereo not drawn) |  | inconclusive: -35.4% [inhibitor]
Fc1ccc(CSc2nncn3c2cc2occc23)c(Cl)c1 | inconclusive: 17.8 µM [inhibitor, single point] | 
CCOc1ccc(CCNC(=O)c2cc3sccc3n2CC)cc1OCC | inconclusive: 35.5 µM [inhibitor, partial curve, poor fit] | 
COC(=O)c1cc(NC(=O)c2ccccc2OC)c(F)cc1F |  | inactive: -10.9%
NC(=O)c1cccc2[nH]c([C@H]3CCN(Cc4ccccn4)C3)nc12 | inconclusive: 50.1 µM [inhibitor, single point] | 
CC(C)=CC(=O)Nc1ccc(Br)c(C)c1 |  | inactive: -13.1%
COc1ccccc1N1CCN(CCCNC(=O)c2nnc(Cc3ccc(F)cc3Cl)o2)CC1 | inconclusive: 15.8 µM [inhibitor, partial curve, poor fit] | 

From PubChem BioAssay AID1347165 (National Center for Advancing Translational Sciences (NCATS), 2019)
